From the BET-seq Pho4 binding data (Le et al. 2018)
Some of the results follow. These are noisy estimates, calculated here from bound and input reads.

target: T1, Pho4 (S. cerevisiae) (UniProt P07270); test: relative binding free energy (BET-seq); higher = weaker binding; settings: reference: library average
T1 sequence: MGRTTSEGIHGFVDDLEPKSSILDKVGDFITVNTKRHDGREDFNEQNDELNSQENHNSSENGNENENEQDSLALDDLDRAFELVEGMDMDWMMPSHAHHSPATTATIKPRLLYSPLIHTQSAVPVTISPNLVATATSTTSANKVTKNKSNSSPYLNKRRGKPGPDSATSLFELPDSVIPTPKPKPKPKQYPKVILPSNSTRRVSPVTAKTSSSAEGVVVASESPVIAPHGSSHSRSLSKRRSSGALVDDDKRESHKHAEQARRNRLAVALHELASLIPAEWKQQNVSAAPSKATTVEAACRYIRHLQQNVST

Sequence | relative binding free energy [kcal/mol]
GTTGCCACGTGTATGA | 0.11
TAGGGCACGTGGTTTC | -0.06
TGTTGCACGTGGAGGA | 0.05
TGGCACACGTGAGGGA | 0.33
TTGTTCACGTGGGCTA | 0.05
ATGGCCACGTGATGTA | 0.04
AGTCTCACGTGTCGGT | 0.14
TTTATCACGTGTAGGA | 0.2
GTGCTCACGTGATGTG | 0.31
TTTATCACGTGTAATA | 0.11
TGTATCACGTGCGCTG | -0.02
GGAGTCACGTGGGCCG | 0.02
AGTGTCACGTGCGGAA | -0.02
TTCTGCACGTGTCGTT | 0.01
TCGGTCACGTGTATAT | 0.2
AGTGGCACGTGGGATG | -0.17
TGAAGCACGTGGTTTT | -0.04
GGATTCACGTGTGGTC | 0.39
TAAGACACGTGAGTTT | 0.31
TAGCTCACGTGAGTAT | 0.4
GTAATCACGTGTAAAT | 0.44
TGGCGCACGTGTCTGT | -0.13
CATGGCACGTGAGAGG | 0.06

Sequence | relative binding free energy [kcal/mol]
GGAGACACGTGATGTA | 0.22
TTGGTCACGTGACAGG | 0.25
CTCGGCACGTGGAGGT | -0.2
TTGAGCACGTGCGGGT | -0.14
GCTTTCACGTGTTTGT | 0.36
GGAGGCACGTGGGAAG | -0.02
ATCGTCACGTGGGTAG | -0.15
GTTGTCACGTGGGGGC | 0.01
GTAGTCACGTGCGTAT | 0.08
GTGGGCACGTGGCCGA | -0.09
CATAGCACGTGGGTTG | -0.41
GGCTACACGTGATGGG | 0.32
TGAGGCACGTGCCGGG | -0.21
CGTTTCACGTGGGTAG | 0.13
TGCTCCACGTGGGGGG | -0.14
CGGGCCACGTGGGAAG | -0.11
TGAACCACGTGGTGTG | -0.09
AGGTGCACGTGGTGTC | -0.15
TACAGCACGTGTGGTT | 0.01
AGTATCACGTGGAGAT | 0.08
TTTTGCACGTGGAGTG | -0.01
TTGTTCACGTGATATG | 0.28
TGCGCCACGTGAGTGT | 0.04

Sequence | relative binding free energy [kcal/mol]
TAGTGCACGTGAAGGA | 0.21
GTAATCACGTGTAGTA | 0.29
CCTGTCACGTGGGGTG | -0.04
TGCGTCACGTGGAGGT | -0.01
GGATTCACGTGGGACG | 0.34
GGTTCCACGTGGGTGA | -0.04
TGCCTCACGTGTTGTG | 0.07
TGTATCACGTGTAAGC | 0.39
TTAGCCACGTGGATGG | -0.11
CGGTGCACGTGTGTTA | 0.02
CTAGTCACGTGGGTAG | 0.03
TCACGCACGTGTGTGG | -0.04
GGTAACACGTGAGCGG | 0.32
CGGTGCACGTGTTGTC | 0.02
ATGTACACGTGAGCGG | 0.33
GTATTCACGTGACGGT | 0.2
TGATGCACGTGATGGC | 0.02
AGTAGCACGTGTGTGC | -0.1
TAAGGCACGTGGGATG | -0.11
TGGCGCACGTGTCGGT | -0.04
ATGTTCACGTGGGGAA | 0.01
AGTGACACGTGTCGGT | -0.05
GAGTACACGTGATGGA | 0.33

Sequence | relative binding free energy [kcal/mol]
CGGGTCACGTGTGTCT | 0.22
AAGGTCACGTGCTTTT | 0.14
TAGTCCACGTGTATGG | -0.08
TCTGACACGTGGGGCG | -0.01
GGGACCACGTGCGGGG | -0.19
ACCGTCACGTGGGTGT | -0.11
GAGGTCACGTGGGACT | 0.04
GGCTGCACGTGCGTGA | -0.02
GTCCTCACGTGTGTGT | 0.28
GGGGCCACGTGTGGGT | 0.15
TTTTCCACGTGTTGGT | 0.16
GTATTCACGTGTTCCG | 0.34
TGTGACACGTGTTCTG | -0.04
GTTCTCACGTGGTGTC | 0.26
GGCATCACGTGATGGG | 0.33
GAGGCCACGTGGGTGA | -0.2
GGGCGCACGTGGGGGT | -0.17
CGGTACACGTGGGGGC | -0.01
TTAATCACGTGGAGTC | 0.2
TTTTACACGTGTGGAG | 0.19
GGTGTCACGTGGTATC | 0.04
TGATTCACGTGGAGTC | 0.25
ACTCTCACGTGGGTGG | 0.11

Sequence | relative binding free energy [kcal/mol]
ATTGTCACGTGGGCAT | 0.02
GTGGTCACGTGGAGCT | 0.21
GCGTTCACGTGTGGCG | 0.37
GGGTCCACGTGTTAGT | 0.18
AAAGGCACGTGTGACG | 0.04
GTAGACACGTGGGTAT | -0.11
GTTTGCACGTGTCGCG | 0.07
TGTGGCACGTGTGGAC | 0.04
GTTCGCACGTGAATGG | 0.25
AGTAACACGTGATTGG | -0.06
GGTGGCACGTGGCCGG | -0.18
TTAAACACGTGTATGG | -0.16
TTGTGCACGTGAAGCG | 0.15
AGGTTCACGTGGAGGT | 0.2
GGGTCCACGTGAGGGA | 0.15
TTGAGCACGTGGGGTT | -0.1
ACGAGCACGTGATGGG | -0.05
CGTTACACGTGAGGAG | 0.4
GTGATCACGTGGTTAG | 0.09
ACGTGCACGTGTGTGA | -0.03
GGGTCCACGTGCAGTT | 0.07
AGGAGCACGTGGGGCG | -0.15
ATCTTCACGTGGTATG | 0.25
